Assay results: PubChem BioAssay (Tox21)
The shares of active, inactive and inconclusive entries below differ from those in the screen. Potencies beside an inconclusive call are fits to weak or partial responses and may not hold up. The source made the active and inactive calls. The call rests on the fitted dose curve; in most records, active means well fitted cell-killing curve with a large enough effect in the repeat runs; inconclusive means weak or mixed curves, or effect the other way; inactive means no such curve, though single readings can be large or run the other way.

Assay: qHTS assay to identify small molecule antagonists of the peroxisome proliferator-activated receptor gamma (PPARg) signaling pathway - cell viability counter screen (AID 743194); further: nearly all actives have a fitted effect of over 55% in size
Details: PPARg-bla HEK293H viability, CellTiter-Glo luminescence, 17 h, co-treated with 50 nM rosiglitazone; activity change, negative = cytotoxicity: at 62.6 µM (top of the series) unless noted
Procedure, shortened: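 Cytotoxicity counter screen in PPARg-bla HEK293H cells, same wells as reporter assay. Compounds plus 50 nM rosiglitazone (final) for 17 h at 37 C, then viability read by CellTiter-Glo luminescence.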
On the % scale 0 is the no-effect control and ±100 the full control effect; potency means the concentration at half of the fitted maximal effect; tags describe the fitted curve by direction and shape.

| Compound | Potency | activity change, negative = cytotoxicity |
| --- | --- | --- |
| COC(=O)c1ccc(I)cc1S(=O)(=O)NC(=O)Nc1nc(C)nc(OC)n1 | inactive |  |
| O=C(Nc1ccc([N+](=O)[O-])cc1)Nc1ccc([N+](=O)[O-])cc1 | active: 1330 nM |  |
| Cc1cc(OI)c(C(C)C)cc1-c1cc(C(C)C)c(OI)cc1C | inactive |  |
| O=C1OCCO1 | inconclusive: 58100 nM [rising, single point] |  |
| O=C(O)c1ccco1 | inconclusive: 77.6 nM [cytotoxic, full curve, poor fit] |  |
| CC(=O)OC/C=C(\C)CCC=C(C)C |  | inconclusive: -31.8% [cytotoxic] |
| CC(C)(O)c1ccc(C(C)(C)O)cc1 |  | inconclusive: 19.1% |
| COc1cc2nc(N3CCN(C(=O)C4CCCO4)CC3)nc(N)c2cc1OC (stereo not drawn) | inactive |  |
